Source: article PMC6084981
These are yes or no findings as the source states them, for the method shown. Some entries that bind do so weakly or less than the wild type. Sequences can lack the tags named with a protein.

Sequences of proteins named here, by UniProt entry; tags and fusion partners are left off.
UniProt P55852: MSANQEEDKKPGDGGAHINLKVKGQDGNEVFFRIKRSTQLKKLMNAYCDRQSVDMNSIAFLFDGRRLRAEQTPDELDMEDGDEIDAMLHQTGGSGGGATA
UniProt Q9FLP6: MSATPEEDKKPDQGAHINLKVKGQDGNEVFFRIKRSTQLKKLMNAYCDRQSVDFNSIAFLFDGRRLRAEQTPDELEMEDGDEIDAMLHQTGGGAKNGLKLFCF

Key:
Assay in all cases: two-hybrid; GAL4-AD (pGADT7, AH109) and GAL4-BD (pGBKT7, Y187) fusions mated; growth on -Leu-Trp-His with 3 mM 3-amino-1,2,4-triazole
[1] = target: Full-length MOM1 harboring the CMM2 mutations, fused to GAL4-BD (Arabidopsis) (UniProt Q9M658)
[2] = target: MOM1 fused to GAL4-BD (pGBKT7) (Arabidopsis) (UniProt Q9M658)
[3] = target: SUMO1 fused to GAL4-BD (Arabidopsis) (UniProt P55852)
[4] = target: SUMO2 fused to GAL4-BD (Arabidopsis) (UniProt Q9FLP6)

Row | binding [1] | binding [2] | binding [3] | binding [4] | Binder
1 |  |  | no binding | no binding | MOM1-P4 fused to GAL4-AD (domain or fragment, UniProt Q9M658 1660-1860) TSVAEPHISGSDACEMEISEPGPQVERSTFANLFHEGGVEHSAGVTALVPSLLNNGTEQIAVQPVPQIPFPVFNDPFLHELEKLRRESENSKKTFEEKKSILKAELERKMAEVQAEFRRKFHEVEAEHNTRTTKIEKDKNLVIMNKLLANAFLSKCTDKKVSPSGAPRGKIQQLAQRAAQVSALRNYIAPQQLQASSFPAP
2 |  |  | binds | binds | MOM1-P2 fused to GAL4-AD (domain or fragment, UniProt Q9M658 798-2001) GEDHIKLSDEESPNIFWSKLLGGKNPMWKYPSDTPQRNRKRVQYFEGSEASPKTGDGGNAKKRKKASDDVTDPRVTDPPVDDDERKASGKDHMGALESPKVITLQSSCKSSGTDGTLDGNDAFGLYSMGSHISGIPEDMLASQDWGKIPDESQRRLHTVLKPKMAKLCQVLHLSDACTSMVGNFLEYVIENHRIYEEPATTFQAFQIALSWIAALLVKQILSHKESLVRANSELAFKCSRVEVDYIYSILSCMKSLFLEHTQGLQFDCFGTNSKQSVVSTKLVNESLSGATVRDEKINTKSMRNSSEDEECMTEKRCSHYSTATRDIEKTISGIKKKYKKQVQKLVQEHEEKKMELLNMYADKKQKLETSKSVEAAVIRITCSRTSTQVGDLKLLDHNYERKFDEIKSEKNECLKSLEQMHDVAKKKLAEDEACWINRIKSWAAKLKVCVPIQSGNNKHFSGSSNISQNAPDVQICNNANVEATYADTNCMASKVNQVPEAENTLGTMSGGSTQQVHEMVDVRNDETMDVSALSREQLTKSQSNEHASITVPEILIPADCQEEFAALNVHLSEDQNCDRITSAASDEDVSSRVPEVSQSLENLSASPEFSLNREEALVTTENRRTSHVGFDTDNILDQQNREDCSLDQEIPDELAMPVQHLASVVETRGAAESDQYGQDICPMPSSLAGKQPDPAANTESENLEEAIEPQSAGSETVETTDFAASHQGDQVTCPLLSSPTGNQPAPEANIEGQNINTSAEPHVAGPDAVESGDYAVIDQETMGAQDACSLPSGSVGTQSDLGANIEGQNVTTVAQLPTDGSDAVVTGGSPVSDQCAQDASPMPLSSPGNHPDTAVNIEGLDNTSVAEPHISGSDACEMEISEPGPQVERSTFANLFHEGGVEHSAGVTALVPSLLNNGTEQIAVQPVPQIPFPVFNDPFLHELEKLRRESENSKKTFEEKKSILKAELERKMAEVQAEFRRKFHEVEAEHNTRTTKIEKDKNLVIMNKLLANAFLSKCTDKKVSPSGAPRGKIQQLAQRAAQVSALRNYIAPQQLQASSFPAPALVSAPLQLQQSSFPAPGPAPLQPQASSFPSSVSRPSALLLNFAVCPMPQPRQPLISNIAPTPSVTPATNPGLRSPAPHLNSYRPSSSTPVATATPTSSVPPQALTYSAVSIQQQQEQQPQQSLSSGLQSNNEVVCLSDDE
3 | binds | binds |  | binds | PIAL2 fused to GAL4-AD (pGADT7) (protein, UniProt F4JYG0 1-760) MSTAAAARPVAGTGLREKTAASLVNSFRLASVTQRLRYHIQDGAKVDPKEFQICCISFAKGIDFAIANNDIPKKVEEFPWLLKQLCRHGTDVYTKTALMVLMISVKHACHLGWFSDSESQELIALADEIRTCFGSSGSTSPGIKSPGSTFSQIMERFYPFVKLGHVLVSFEVKAGYTMLAHDFYISKNMPHSLQEKIRLFVAQTDNIDTSACISNPPEVSFLLNGKGVEKRVNIAMDTGPQLPTNVTAQLKYGTNLLQVMGNFKGNYIIIIAFTGLVVPPEKPVLKDYLQSGVIEASPDSDIIEGPSRVSLSCPISRKRIKLPVKGQLCKHLQCFDFSNYVHINMRNPTWRCPHCNQPVCYPDIRLDQNMAKILKDVEHNAADVIIDAGGTWKVTKNTGETPEPVREIIHDLEDPMSLLNSGPVVFDLTGDDDAELEVFGDNKVEDRKPCMSDAQGQSNNNNTNKHPSNDDYSSIFDISDVIALDPEILSALGNTAPQPHQASNTGTGQQYSNLSQIPMSIDPMPVPVPFSQTPSPRDRPATTSTVFTIPNPSPQYSQVHASPVTPTGTYLGRTTSPRWNQTYQSQAPPMTTPYTSRKVSVPVTSQSPANVSSFVQSQHVPRVLSQPNNYGVRGLTSSHASTSRQHPSGPTVQSVSRLSDLVDVDLTVPDTSNWRPRMRGSLVPGSHSTALDHMIIRPSQQSQTSTRLNSSQPVQTPSVQTSQAQSPFTTAAYRTETVLGNRNHPVPAPPGIVRPTGPTS

Further lines, the binder ahead of its results:

Row | Binder | binding [1] | binding [2] | binding [3] | binding [4]
4 | PIAL1 fused to GAL4-AD (protein, UniProt A0A0A7EPL0 1-847) MVIPATSRFGFRAEFNTKEFQASCISLANEIDAAIGRNEVPGNIQELALILNNVCRRKCDDYQTRAVVMALMISVKSACQLGWFPERETQELLAIIDLMWNGFSCPENVTSCVNSPVTLISQVIERFYPCVKLGHILVSFEAKPESKMMMKDFHISKKMPHSPKQKVGLFVVRTEDISRSNCIVHPQGVSFLLNGKGIDKRVNISMESGPQLPTNVTALLNLGANLLQAIGCFGGSYLIAIAFMDVIPLPNKPLLKDYVHPEVVGSNSDCDIIEGPSRISLSCPISRTRIKLPVKGHVCKHLQCFDFWNYVNMNTRRPSWRCPHCNQSVCYTDIRVDQKLRKILEEVGRNAADVVISADGTWMVETENDEDVELVPETTHDHGDPNSFINLGPTVKNPARDENEMETSTQVEEHNPCLSEIQGPSNDTHRPASDYTMLNQSHTSTNTLPQLPRTLNAFDGQQFVNLPQVINTRDSPASQALPMTFSPTPSPQDILATNAANFGTSMPAAQSSQFQGSHVTSLGNCEGRTSDLMARWNHIYGRVQTQFPPAPLSHHHYSMQNQSPSPAQQRPVPSYIAHPQTFHVNYGENADQRWMPSSIAHPQTLPVNYGGNTNQRPIPSSIAHPQTLPVNYRGNTDHRSTPYSITHLQTLLNYGGNADQRPMPSSITNLQTLPATYGGYAHQRPMSSSITHPRTSPVNYGGTPDQRPMPSSITHPQTLPVSYGGTTDQILNPGGAMGQFSSREFMNLTPANTENWRPQSRMRGSVAPGTGYDHMIIHPTRPVHPQAQTPPAPLSTSYDGADEIQAFIGHPSYPVSNNETQAGTSSLPVAEGLGYSGSFWSMPPETW | binds | binds |  | 
5 | MOM1-P3 fused to GAL4-AD (domain or fragment, UniProt Q9M658 1660-2001) TSVAEPHISGSDACEMEISEPGPQVERSTFANLFHEGGVEHSAGVTALVPSLLNNGTEQIAVQPVPQIPFPVFNDPFLHELEKLRRESENSKKTFEEKKSILKAELERKMAEVQAEFRRKFHEVEAEHNTRTTKIEKDKNLVIMNKLLANAFLSKCTDKKVSPSGAPRGKIQQLAQRAAQVSALRNYIAPQQLQASSFPAPALVSAPLQLQQSSFPAPGPAPLQPQASSFPSSVSRPSALLLNFAVCPMPQPRQPLISNIAPTPSVTPATNPGLRSPAPHLNSYRPSSSTPVATATPTSSVPPQALTYSAVSIQQQQEQQPQQSLSSGLQSNNEVVCLSDDE |  |  | binds | binds
6 | MOM1-P1 fused to GAL4-AD (domain or fragment, UniProt Q9M658 1-832) MKKDEKIGLTGRTIYTRSLAASIPASVEQETPGLRRSSRGTPSTKVITPASATRKSERLAPSPASVSKKSGGIVKNSTPSSLRRSNRGKTEVSLQSSKGSDNSIRKGDTSPDIEQRKDSVEESTDKIKPIMSARSYRALFRGKLKESEALVDASPNEEELVVVGCSRRIPAGNDDVQGKTDCPPPADAGSKRLPVDETSLDKGTDFPLKSVTETEKIVLDASPIVETGDDSVIGSPSENLETQKLQDGKTDCSPPANAESKTLPVGETSLEKEYPQKFQDDNTDCLPPANAESKRLPVGETSLEKDTDFPLKSTTETGKMVLYASPIVETRDDSVICSPSTNLETQKLLVSKTGLETDIVLPLKRKRDTAEIELDACATVANGDDHVMSSDGVIPSPSGCKNDNRPEMCNTCKKRQKVNGDCQNRSVCSCIVQPVEESDNVTQDMKETGPVTSREYEENGQIQHGKSSDPKFYSSVYPEYWVPVQLSDVQLEQYCQTLFSKSLSLSSLSKIDLGALEETLNSVRKTCDHPYVMDASLKQLLTKNLELHEILDVEIKASGKLHLLDKMLTHIKKNGLKAVVFYQATQTPEGLLLGNILEDFVGQRFGPKSYEHGIYSSKKNSAINNFNKESQCCVLLLETRACSQTIKLLRADAFILFGSSLNPSHDVKHVEKIKIESCSERTKIFRLYSVCTVEEKALILARQNKRQNKAVENLNRSLTHALLMWGASYLFDKLDHFHSSETPDSGVSFEQSIMDGVIHEFSSILSSKGGEENEVKLCLLLEAKHAQGTYSSDSTLFGEDHIKLSDEESPNIFWSKLLGGKNPMWKYPSDTP |  |  | no binding | no binding
